# Measurements published in PubChem BioAssay (Tox21).
# This list was built around the results that the source calls inconclusive (neither active nor inactive); the mix of calls is not that of the screen. Potencies of inconclusive entries are left out as doubtful fits. Activity calls are given as the source filed them. Calls come from the whole dose curve; as a rule, active = well fitted curve in the direction sought with a large enough effect in the repeat runs; inconclusive = weak or mixed curves; inactive = no such curve, though single readings can be large; an effect the other way counts as inactive or inconclusive.
# What was measured:
# [1] = A CellTox Green Cytotoxicity Assay to monitor cytotoxicity in HepG2 cells - 16 hour (AID 1224876); note: nearly all actives have a fitted effect of over 45% in size
# Outline: (§1)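 Cells and non-lytic dye reagent are dispensed together (600 HepG2 cells/well) and incubated 5 h before DMSO compound transfer. Kinetic fluorescence is then recorded in the same wells during 40 h at 37 C.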
# [2] = A CellTox Green Cytotoxicity Assay to monitor cytotoxicity in HepG2 cells - 24 hour (AID 1224878); note: nearly all actives have a fitted effect of over 45% in size
# Outline: as §1
# [3] = A CellTox Green Cytotoxicity Assay to monitor cytotoxicity in HepG2 cells - 40 hour (AID 1224879); note: nearly all actives have a fitted effect of over 40% in size
# Outline: as §1
# [4] = qHTS RealTime-Glo MT Cell Viability Assay in HepG2 cells - 32 hour (AID 1224877); note: nearly all actives have a fitted effect of over 55% in size
# Outline: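 Cells + NanoLuc/prosubstrate dispensed (600 cells/well) → 5 h at 37 C/5% CO2 → compounds in DMSO transferred → 40 h incubation at 37 C, luminescence read at 0, 8, 16, 24, 32, 40 h.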
# % is set by controls: 0 for no effect and ±100 for the full control effect; potency is the fitted concentration of half-maximal effect; tags give direction and shape of the fitted curve.
smiles,measurement,setting,value
CCC/C=C/CO,Potency,[1],inactive
Cn1c(NCCN(CCO)CCCc2ccc([N+](=O)[O-])cc2)cc(=O)n(C)c1=O,Potency,[1],"inconclusive [activator, full curve, poor fit]"
CN(C)CCCNCCCN,Potency,[1],"inconclusive [activator, partial curve, poor fit]"
same,Potency,[2],"inconclusive [activator, partial curve, poor fit]"
same,Potency,[3],"inconclusive [activator, single point]"
CN1C(C)(C)CC(O)CC1(C)C,Potency,[1],inactive
COC(Cc1ccccc1)OC,Potency,[1],inactive
same,Potency,[2],inactive
CC(=O)OCc1ccc2c(c1)OCO2,Potency,[1],inactive
CC(=O)O[Si](C)(OC(C)=O)OC(C)=O,Potency,[1],inactive
CN(C)CCCN1c2ccccc2Sc2ccccc21,Potency,[1],"inconclusive [activator, single point]"
same,Potency,[2],active: 26.8 µM
COCC(O)CO (stereo unspecified),Potency,[1],inactive
CCNC(=O)NCCCOc1cccc(CN2CCCCC2)c1,Potency,[1],"inconclusive [activator, single point]"
same,Potency,[2],"inconclusive [activator, single point]"
CCCCCCOC(=O)CCCCCCCC(=O)OCCCCCC,Potency,[1],inactive
CC(C)c1ccccc1,Potency,[1],inactive
CC(C)c1cc2c(cc1S(=O)(=O)O)[C@@]1(C)CCC[C@@](C)(C(=O)O)[C@@H]1CC2,Potency,[1],inactive
O=C1N(c2ccccc2)c2ccccc2C1(Cc1ccncc1)Cc1ccncc1,Potency,[1],inactive
C[N+](C)(CCOc1ccccc1)Cc1cccs1,Potency,[1],"inconclusive [activator, partial curve, poor fit]"
same,Potency,[4],"inconclusive [cytotoxic, single point]"
same,Potency,[2],"inconclusive [activator, partial curve, poor fit]"
same,Potency,[3],"inconclusive [activator, partial curve, poor fit]"
Cc1ccc(N)c([N+](=O)[O-])c1,Potency,[1],inactive
CCCCCCCCCCCCCCCCOS(=O)(=O)O,Potency,[1],"inconclusive [activator, single point]"
same,Potency,[2],"inconclusive [activator, single point]"
same,Potency,[3],"inconclusive [activator, single point]"
CCCCC1CCCCC(=O)O1 (stereo unspecified),Potency,[1],inactive
CC(C)(C)c1cc(CCC(=O)NN)cc(C(C)(C)C)c1O,Potency,[1],inactive
same,Potency,[2],"inconclusive [activator, single point]"
same,Potency,[3],"inconclusive [activator, single point]"
F[Si-2](F)(F)(F)(F)F,Potency,[1],inactive
NC[C@H]1O[C@H](O[C@H]2[C@H](O)[C@@H](O[C@H]3O[C@H](CO)[C@@H](O)[C@H](N)[C@H]3O)[C@H](N)C[C@@H]2N)[C@H](N)[C@@H](O)[C@@H]1O,cytotoxicity increase,[1],inactive: 0.586% [at 15.8 µM]
Cc1onc(-c2ccccc2)c1C(=O)Cl,Potency,[1],"inconclusive [activator, single point]"
same,Potency,[2],"inconclusive [activator, single point]"
same,Potency,[3],"inconclusive [activator, single point]"
C=CCCC,Potency,[4],inactive
CCCCCC1C(=O)CCC1CC(=O)OC (stereo unspecified),Potency,[1],"inconclusive [activator, partial curve, poor fit]"
same,Potency,[2],"inconclusive [activator, partial curve, poor fit]"
same,Potency,[3],"inconclusive [activator, partial curve, poor fit]"
N#CCC(=O)NN,Potency,[4],inactive
CCCCCOc1ccc(C2SC(=O)NC2=O)cc1OCC (stereo unspecified),Potency,[1],"inconclusive [activator, single point]"
same,Potency,[2],"inconclusive [activator, single point]"
same,Potency,[3],"inconclusive [activator, single point]"
CC(C)(C)C1CCCCC1O (stereo unspecified),Potency,[1],"inconclusive [activator, single point]"
same,Potency,[2],"inconclusive [activator, single point]"
same,Potency,[3],"inconclusive [activator, single point]"
CCOc1ccc(N=Nc2ccc(/C=C/c3ccc(N=Nc4ccc(OCC)cc4)cc3S(=O)(=O)O)c(S(=O)(=O)O)c2)cc1,Potency,[4],"inconclusive [cytotoxic, partial curve, poor fit]"
C=C1CC[C@H]2C[C@@H]1C2(C)C,Potency,[4],inactive
CCCCCCCCCCCCCCOS(=O)(=O)O,Potency,[1],active: 34.7 µM
same,Potency,[2],active: 34.7 µM
same,Potency,[3],active: 34.7 µM
Cc1nnc(C(=O)NC(C)(C)c2nc(C(=O)NCc3ccc(F)cc3)c(O)c(=O)n2C)o1,Potency,[4],inactive
C=CC(C)(O)CCCC(C)CCCC(C)CCCC(C)C (stereo unspecified),Potency,[1],inactive
same,Potency,[3],inactive
Cc1cc(C)c(C=O)c(C)c1,Potency,[4],"inconclusive [rising, partial curve, poor fit]"
C=C(C)C(=O)OC1CC(C)CC(C)(C)C1 (stereo unspecified),Potency,[1],"inconclusive [activator, single point]"
same,Potency,[3],"inconclusive [activator, single point]"
O=C1C=CCCC1,Potency,[1],inactive
same,Potency,[3],inactive
CCCCC(=O)O,Potency,[4],inactive
O=C(Nc1ccccc1)c1cc([N+](=O)[O-])ccc1Cl,Potency,[1],inactive
same,Potency,[3],"inconclusive [activator, single point]"
CC(C)=CCC[C@H](C)CCO,Potency,[1],inactive
same,Potency,[3],"inconclusive [activator, single point]"
CC(C)C(=O)OCCc1ccccc1,Potency,[4],inactive
